Assay results taken from PubChem BioAssay AID1347165 (National Center for Advancing Translational Sciences (NCATS), 2019).
Values joined by “and” are separate entries in the source; they are usually repeats but may differ in a detail not shown here. Equal entries are not always repeated. The whole screen tested about 220,000 compounds, of which about 5,700 (2.6%) were called active. This list was built around the results that the source calls inconclusive (neither active nor inactive); the mix of calls is not that of the screen. The call rests on the fitted dose curve; in most records, active means well fitted inhibition curve with a large enough effect; inconclusive means small, poorly fitted or top-dose-only effect; inactive means no such curve, though single readings can be large or run the other way. Potencies beside an inconclusive call are fits to weak or partial responses and may not hold up.

These compounds were tested against Lysine-specific demethylase 5B (Homo sapiens) (UniProt Q9UGL1) (assay: Primary screen for KDM5B Histone Demethylases FDH-coupled qHTS). Conditions: FDH-coupled NADH fluorescence (FDH is formaldehyde dehydrogenase); activity change, negative = inhibition: at 57.7 µM (top of the series) unless noted.
Sequence of UniProt Q9UGL1 (Q9UGL1 whole entry, looked up): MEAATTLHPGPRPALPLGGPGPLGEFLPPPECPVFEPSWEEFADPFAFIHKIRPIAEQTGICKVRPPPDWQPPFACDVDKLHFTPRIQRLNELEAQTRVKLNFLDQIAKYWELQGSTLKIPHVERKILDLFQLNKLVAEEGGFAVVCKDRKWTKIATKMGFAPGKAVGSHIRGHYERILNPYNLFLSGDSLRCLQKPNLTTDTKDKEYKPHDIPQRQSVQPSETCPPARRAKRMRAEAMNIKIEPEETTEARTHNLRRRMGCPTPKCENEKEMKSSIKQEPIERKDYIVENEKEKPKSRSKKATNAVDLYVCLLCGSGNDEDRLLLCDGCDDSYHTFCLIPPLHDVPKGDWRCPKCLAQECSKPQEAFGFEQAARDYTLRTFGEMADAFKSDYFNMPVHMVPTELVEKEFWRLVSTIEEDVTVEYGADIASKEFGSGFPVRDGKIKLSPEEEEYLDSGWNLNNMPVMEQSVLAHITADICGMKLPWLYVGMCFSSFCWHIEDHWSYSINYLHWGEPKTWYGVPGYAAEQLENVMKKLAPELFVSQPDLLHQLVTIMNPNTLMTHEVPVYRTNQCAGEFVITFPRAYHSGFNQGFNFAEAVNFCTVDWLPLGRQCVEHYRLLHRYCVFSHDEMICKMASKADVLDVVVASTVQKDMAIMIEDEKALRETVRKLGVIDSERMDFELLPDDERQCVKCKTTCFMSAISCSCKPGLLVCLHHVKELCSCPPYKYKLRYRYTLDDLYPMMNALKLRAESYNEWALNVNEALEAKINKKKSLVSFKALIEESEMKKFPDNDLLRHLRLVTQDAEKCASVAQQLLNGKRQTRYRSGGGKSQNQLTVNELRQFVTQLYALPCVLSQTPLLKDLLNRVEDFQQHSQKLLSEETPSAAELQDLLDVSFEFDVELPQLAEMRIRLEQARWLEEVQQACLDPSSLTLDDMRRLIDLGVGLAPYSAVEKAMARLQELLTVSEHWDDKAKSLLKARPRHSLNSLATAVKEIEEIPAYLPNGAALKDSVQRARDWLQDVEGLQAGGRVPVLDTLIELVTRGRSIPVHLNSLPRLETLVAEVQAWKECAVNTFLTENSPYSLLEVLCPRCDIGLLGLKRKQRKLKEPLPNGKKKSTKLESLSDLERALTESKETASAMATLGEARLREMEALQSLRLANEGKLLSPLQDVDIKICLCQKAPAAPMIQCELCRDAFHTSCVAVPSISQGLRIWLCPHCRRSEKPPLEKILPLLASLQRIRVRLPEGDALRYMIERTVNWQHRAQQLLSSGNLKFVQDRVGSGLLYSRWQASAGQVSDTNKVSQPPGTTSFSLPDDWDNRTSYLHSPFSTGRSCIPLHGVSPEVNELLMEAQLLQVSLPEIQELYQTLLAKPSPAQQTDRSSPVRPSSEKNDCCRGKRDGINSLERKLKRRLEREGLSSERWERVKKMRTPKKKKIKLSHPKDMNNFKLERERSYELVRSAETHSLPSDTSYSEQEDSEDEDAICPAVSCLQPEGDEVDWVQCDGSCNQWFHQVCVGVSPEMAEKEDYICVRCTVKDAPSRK
In short: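 KDM5BΔAP (200 nM final) in 50 mM HEPES pH 7.5, 0.01% Tween-20 was preincubated 10 min at RT with compound over a concentration range. Substrate mix (H3K4me3 12.5 µM, α-KG 25 µM, Fe²⁺, ascorbate, NAD⁺, FDH) was added, and NADH fluorescence change over 30 min gave dose-response curves.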
Further: nearly all actives have a fitted effect of over 70% in size.
Potency means the concentration at half of the fitted maximal effect; tags describe the fitted curve by direction and shape.
Wherever activity change, negative = inhibition is given: 0% is about no effect.

Question: With `O=C1[C@@H]2C[C@@H](O)CN2C2(CN(Cc3ccccn3)C2)C(=O)N1Cc1ccccc1F` as the compound, how does the Potency read?
Answer: inconclusive: 31.6 µM [inhibitor, single point]

Question: For `Cc1ccc(-n2ncc(C(=O)N3CCN(c4cccc(C)c4C)CC3)c2C2CCNCC2)c(C)c1`, which Potency is on record?
Answer: inconclusive: 35.5 µM [inhibitor, single point]

Question: Which Potency does the source give for `CCOC(=O)c1cc(-c2ccc(F)cc2)n(CCC(=O)NCc2ccc(C)cc2)c1C` here?
Answer: inconclusive: 7.08 µM [inhibitor, partial curve, poor fit]

Question: How did the Potency turn out when `Fc1ccc(-c2cc3c(cn2)CN(Cc2ccncc2)CCN3)cc1Cl` was run?
Answer: active: 35.5 µM

Question: Which “activity change, negative = inhibition” value does the source give for `CN(Cc1cccnc1)C(=O)CCC1CCN(S(=O)(=O)c2ccccc2)CC1` here?
Answer: inactive: 5.2%

Question: With `CCCc1cc(=O)oc2cc(OCC(=O)O)ccc12` as the compound, how does the Potency read?
Answer: inconclusive: 25.1 µM [inhibitor, partial curve, poor fit]

Question: How did the “activity change, negative = inhibition” value turn out when `COC(=O)CN1C(=O)[C@@H]2C[C@@H](O)CN2C2(CN(CC3CC3)C2)C1=O` was run?
Answer: inactive: -1.38% [at 86.2 µM]

Question: For `COCc1nnc2n1CCC(NC(=O)Cc1c[nH]c3ccccc13)CC2` (configuration not stated), which “activity change, negative = inhibition” value is on record?
Answer: inactive: -11.6%

Question: For `O=C(COc1ccccc1F)Nc1ccc2nc(SCc3ccccc3)sc2c1`, which Potency is on record?
Answer: inconclusive: 17.8 µM [inhibitor, partial curve, poor fit]

Question: `CC1=NS(=O)(=O)N(C)C=C1C(=O)OCc1nc(-c2ccc(Br)cc2)no1` was tested. Which Potency did it give?
Answer: inconclusive: 25.1 µM [inhibitor, partial curve, poor fit]

Question: Which “activity change, negative = inhibition” value does the source give for `Cc1cc(C)c2c(n1)sc1c(=O)n(CC(=O)c3ccccc3)cnc12` here?
Answer: inactive: 21.4%

Question: How did the activity change, negative = inhibition turn out when `CCCS(=O)(=O)c1nc(S(=O)(=O)c2ccc(C)cc2)c(NC(C)c2ccccc2)s1` (configuration not stated) was run?
Answer: inconclusive: -33.6% [inhibitor]

Question: Which “activity change, negative = inhibition” value does the source give for `COc1cccc(CC(=O)NCCn2ccn3nc(-c4ccc(C)cc4C)cc3c2=O)c1` here?
Answer: inactive: -5.51%

Question: `Cc1cccc(Cn2c(SCc3ccc(C(=O)NCc4ccccc4F)cc3)nc3cccnc32)c1` was tested. Which Potency did it give?
Answer: inconclusive: 35.5 µM [inhibitor, partial curve, poor fit]

Question: Which Potency does the source give for `Cc1ccc(-n2ccnc(NCc3cccs3)c2=O)cc1C` here?
Answer: inconclusive: 17.8 µM [inhibitor, partial curve, poor fit]

Question: For `CC(C)c1ccc(NC(=O)c2cc3n(n2)CC(c2ccc(Cl)cc2)OC3)cc1` (configuration not stated), which Potency is on record?
Answer: inconclusive: 25.1 µM [inhibitor, single point]

Question: With `Cc1ccc2nc(C)c(Cc3nnc(SCC(=O)Nc4cccc(Cl)c4C)n3C)c(=O)n2c1` as the compound, how does the Potency read?
Answer: inconclusive: 39.8 µM [inhibitor, single point]

Question: Which Potency does the source give for `O=C(COCc1cc(-c2ccc3c(c2)OCO3)on1)N1CCN(c2cccc(C(F)(F)F)c2)CC1` here?
Answer: inconclusive: 44.7 µM [inhibitor, single point]

Question: `COc1cc2nc(NC(=O)c3ccc(S(=O)(=O)N4CCCC4)cc3)sc2cc1OC` was tested. Which Potency did it give?
Answer: inconclusive: 17.8 µM [inhibitor, partial curve, poor fit]

Question: How did the “activity change, negative = inhibition” value turn out when `COc1ccc(-c2cc(C(=O)N3CCN(C(=O)c4ccc(Br)o4)CC3)[nH]n2)cc1` was run?
Answer: inactive: -7.1%

Question: `CC(=O)Nc1ccc(C=C(C(C)=O)C(C)=O)cc1` was tested. Which Potency did it give?
Answer: inconclusive: 28.2 µM [inhibitor, partial curve, poor fit]

Question: For `O=C(CC1CCCCC1)N1CCC2(CC1)NC(=O)N(c1ccc(F)cc1)N2`, which Potency is on record?
Answer: inconclusive: 28.2 µM [inhibitor, partial curve, poor fit]

Question: How did the activity change, negative = inhibition turn out when `CCC(C(=O)Nc1cc(OC)ccc1OC)n1nc(-c2ccccc2)c2c(c1=O)CCCC2` (configuration not stated) was run?
Answer: inconclusive: -32% [inhibitor]

Question: Which “activity change, negative = inhibition” value does the source give for `COCCN1C(=O)c2ccccc2C(C(=O)Nc2nnc(C3CC3)s2)C12CCCCC2` (configuration not stated) here?
Answer: inactive: 21%

Question: With `COC[C@@H]1CN(c2cnccn2)C[C@H]1C(=O)NCC1CC1` as the compound, how does the Potency read?
Answer: active: 17.8 µM

Question: How did the “activity change, negative = inhibition” value turn out when `COc1ccc(C2CC(=O)Nc3c2c(C)nn3-c2ncnc3nc[nH]c23)cc1OC(C)C` (configuration not stated) was run?
Answer: inactive: 8.35%

Question: With `Cc1cccc(NC(=O)/C(C#N)=C2\CCCC2C)c1` (configuration not stated) as the compound, how does the “activity change, negative = inhibition” value read?
Answer: inactive: 20.3%

Question: For `CCC(C)NC(=O)c1cc(-c2cccs2)nc2ccccc12` (configuration not stated), which Potency is on record?
Answer: inconclusive: 12.6 µM [inhibitor, partial curve, poor fit] and inconclusive: 28.2 µM [inhibitor, partial curve, poor fit]

Question: Which Potency does the source give for `CCCC(=O)N1Cc2ccccc2CC2(CCCCN2CC)C1` (configuration not stated) here?
Answer: active: 56.2 µM

Question: Which Potency does the source give for `COc1ccc(-c2noc([C@@H]3Cc4nc[nH]c4CN3Cc3ccc(CO)o3)n2)cc1` here?
Answer: inconclusive: 25.1 µM [inhibitor, partial curve]

Question: How did the Potency turn out when `CCCN1CCCc2cc(CN(CCCN3CCOCC3)C(=O)Nc3ccc(OCC)cc3)ccc21` was run?
Answer: inconclusive: 2.82 µM [inhibitor, partial curve, poor fit]

Question: With `COc1ccccc1C(=O)NCC(=O)OCC(=O)Nc1nnc(-c2ccccc2)o1` as the compound, how does the Potency read?
Answer: inconclusive: 28.2 µM [inhibitor, partial curve, poor fit]

Question: `O=C1CCSc2ccc(S(=O)(=O)NCCc3cccs3)cc2N1` was tested. Which “activity change, negative = inhibition” value did it give?
Answer: inactive: -4.6%

Question: `CC(=O)c1ccc(NC(=O)N2C[C@@H]3C[C@H](C2)c2ccc(NC(=O)Nc4cccc(F)c4)c(=O)n2C3)cc1` was tested. Which Potency did it give?
Answer: inconclusive: 15.8 µM [inhibitor, partial curve]

Question: `COc1ccc2cc(C(=O)N3CCN(C)CC3)[nH]c2c1` was tested. Which “activity change, negative = inhibition” value did it give?
Answer: inactive: 47.4%

Question: `O=S(=O)(Cc1noc([C@@H]2C[C@@H](O)CN2Cc2cc3ccccc3o2)n1)c1ccc(F)cc1` was tested. Which “activity change, negative = inhibition” value did it give?
Answer: inactive: -8.53%

Question: Which Potency does the source give for `CNC(=O)c1cccc(-c2cnc(Nc3cccnc3OC)c3c2CCO3)c1` here?
Answer: active: 35.5 µM

Question: With `CC1=C(C(=O)Nc2cc(C)on2)C(c2c(Cl)cccc2Cl)NC(=O)N1C` (configuration not stated) as the compound, how does the “activity change, negative = inhibition” value read?
Answer: inactive: 9.55%

Question: How did the Potency turn out when `CC(OC(=O)c1cc(-c2ccc(F)cc2)nc2ccccc12)C(N)=O` (configuration not stated) was run?
Answer: inconclusive: 28.2 µM [inhibitor, partial curve, poor fit]

Question: For `CCCC(C)NC(=O)COC(=O)c1nn(-c2ccccc2)cc1OC` (configuration not stated), which Potency is on record?
Answer: inconclusive: 25.1 µM [inhibitor, single point]

Question: Which Potency does the source give for `COc1cc(NC(=O)Cn2c(=O)n(CC3CCCO3)c(=O)c3cc(OC)c(OC)cc32)cc(OC)c1` (configuration not stated) here?
Answer: inconclusive: 35.5 µM [inhibitor, partial curve, poor fit]

Question: How did the Potency turn out when `COc1ccccc1C(=O)NCCc1csc(-c2ccc(C(F)(F)F)cc2)n1` was run?
Answer: inconclusive: 35.5 µM [inhibitor, single point]

Question: For `CC(C)CC1NC(=O)N(Cc2coc(-c3ccccc3)n2)C1=O` (configuration not stated), which “activity change, negative = inhibition” value is on record?
Answer: inactive: 10%

Question: `COC(=O)c1c(NC(=O)c2ccco2)sc2c1CCN(C(C)=O)C2` was tested. Which Potency did it give?
Answer: inconclusive: 14.1 µM [inhibitor, partial curve, poor fit]

Question: How did the “activity change, negative = inhibition” value turn out when `CCS(=O)(=O)Nc1ccc(C2(C(=O)NCC3CCCO3)CCCCC2)cc1` (configuration not stated) was run?
Answer: inactive: 11.9%

Question: How did the Potency turn out when `CN1CCCN(S(=O)(=O)c2cccc(Cl)c2)c2ccccc21` was run?
Answer: inconclusive: 14.1 µM [inhibitor, single point]

Question: How did the activity change, negative = inhibition turn out when `COc1ccc(C2CC(=O)c3cc(-c4nc(-c5cccc([N+](=O)[O-])c5)cs4)c(=O)n(-c4ccccc4C)c3C2)cc1` (configuration not stated) was run?
Answer: inconclusive: -32.3% [inhibitor]

Question: How did the “activity change, negative = inhibition” value turn out when `O=C(O)C(Cc1ccccc1)C(C(=O)O)c1ccccc1` (configuration not stated) was run?
Answer: inactive: 11.7%

Question: How did the Potency turn out when `O=C(NCc1ccccc1F)c1cccc(NC(=O)N2CCSc3ncccc32)c1` was run?
Answer: inconclusive: 28.2 µM [inhibitor, partial curve, poor fit]

Question: `CCc1nc2cc(N3CCC(C(=O)NCc4cc(F)cc(F)c4)CC3)cnc2nc1CC` was tested. Which Potency did it give?
Answer: inconclusive: 12.6 µM [inhibitor, partial curve, poor fit]

Question: Which “activity change, negative = inhibition” value does the source give for `O=C(NCc1ncc(-c2ccccc2)o1)c1ccc(F)cc1` here?
Answer: inactive: -8.87%

Question: For `c1cc(CNCC2CCCO2)c2cc[nH]c2c1` (configuration not stated), which Potency is on record?
Answer: inconclusive: 39.8 µM [inhibitor, single point]

Question: Which Potency does the source give for `CCn1cc(/C=C(\NC(=O)c2ccco2)C(=O)NCCN2CCOCC2)c2ccccc21` here?
Answer: inconclusive: 20 µM [inhibitor, single point]

Question: `O=C(NC1CC1)[C@@H]1C[C@H](Oc2cccnc2)CN1C(=O)Cc1cccc(F)c1` was tested. Which Potency did it give?
Answer: inconclusive: 31.6 µM [inhibitor, single point]

Question: How did the “activity change, negative = inhibition” value turn out when `Cc1ccc(CN2CCCc3nc(C)nc(-c4ccc(O)cc4)c3C2)cc1` was run?
Answer: inactive: 16.9%

Question: How did the “activity change, negative = inhibition” value turn out when `Cn1c(=O)c2[nH]c(N3CCN(C(=O)c4ccccc4F)CC3)nc2n(C)c1=O` was run?
Answer: inactive: 10.2%

Question: `O=C(NCc1ccccc1F)c1ccc2c(c1)CN(Cc1cccnc1)CCO2` was tested. Which “activity change, negative = inhibition” value did it give?
Answer: inactive: -17.1%

Question: How did the “activity change, negative = inhibition” value turn out when `CCn1nc(C(=O)N2CC(C(N)=O)Oc3ccccc32)c2ccccc2c1=O` (configuration not stated) was run?
Answer: inactive: -21.4%

Question: `CC(=O)c1cn(CC(=O)NCCCCCC(=O)O)c2ccccc12` was tested. Which “activity change, negative = inhibition” value did it give?
Answer: inactive: -4.87%

Question: How did the “activity change, negative = inhibition” value turn out when `O=C(O)CNCc1cccnc1` was run?
Answer: inactive: 1.65%

Question: Which Potency does the source give for `Cc1ccc(NC(=O)Cn2c(=O)n(CCc3ccccc3)c(=O)c3sc4ccccc4c32)cc1C` here?
Answer: inconclusive: 2.82 µM [inhibitor, full curve, poor fit]

Question: Which Potency does the source give for `CCOc1ccc(C2NC(=S)NC3=C2CCc2ccccc23)cc1` (configuration not stated) here?
Answer: inconclusive: 35.5 µM [inhibitor, partial curve, poor fit]

Question: `Cc1ccc(CN2CCC[C@H]2C(=O)N2CCCCCCNC(=O)CC2)o1` was tested. Which Potency did it give?
Answer: inconclusive: 20 µM [inhibitor, partial curve, poor fit]

Question: `Cc1ccccc1Cc1c(C)nc2c(-c3ccccc3)c(C)[nH]n2c1=O` was tested. Which Potency did it give?
Answer: inconclusive: 25.1 µM [inhibitor, partial curve, poor fit]

Question: How did the Potency turn out when `CN1CCOc2c(C(=O)NCc3cnn(C)c3)cc(-c3ccc([S+](C)(=O)[O-])cc3)cc21` was run?
Answer: inconclusive: 28.2 µM [inhibitor, single point]

Question: How did the “activity change, negative = inhibition” value turn out when `COc1ccc(-c2noc(-c3cccn3CC(=O)NC3CCCCC3)n2)cc1F` was run?
Answer: inactive: 19.3%

Question: With `CCc1noc(-c2cccn3c(CNC(=O)c4ccncc4)nnc23)n1` as the compound, how does the Potency read?
Answer: active: 28.2 µM
